In PubChem BioAssay AID588591 (National Center for Advancing Translational Sciences (NCATS), 2011):
Out of some 390,000 compounds screened, about 4,700 (1.2%) were called active. Inconclusive results, whose numbers are uncertain, are shown with a selection of clear calls. Calls follow the shape of the dose curve; as a rule, active = well fitted inhibition curve with a large enough effect; inconclusive = small, poorly fitted or top-dose-only effect, or another doubt; inactive = no such curve, though single readings can be large or run the other way. Potencies beside an inconclusive call are fits to weak or partial responses and may not hold up.

These compounds were tested against DNA polymerase eta (Homo sapiens) (UniProt Q9Y253) (assay: qHTS for Inhibitors of Polymerase Eta). Conditions: recombinant Pol eta, fluorescent DNA replication assay; series mostly up to 114 µM.
How it was run: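 Fluorescent replication assay: 50 nM final substrate added after a 15 min room-temperature compound preincubation with 10 nM enzyme. Signal taken at 0 min and again at 10 min.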
Potency is read from the fitted curve at half-maximal effect; tags tell the direction and shape of the fitted curve.

Chain of UniProt Q9Y253 (Q9Y253 whole entry, looked up): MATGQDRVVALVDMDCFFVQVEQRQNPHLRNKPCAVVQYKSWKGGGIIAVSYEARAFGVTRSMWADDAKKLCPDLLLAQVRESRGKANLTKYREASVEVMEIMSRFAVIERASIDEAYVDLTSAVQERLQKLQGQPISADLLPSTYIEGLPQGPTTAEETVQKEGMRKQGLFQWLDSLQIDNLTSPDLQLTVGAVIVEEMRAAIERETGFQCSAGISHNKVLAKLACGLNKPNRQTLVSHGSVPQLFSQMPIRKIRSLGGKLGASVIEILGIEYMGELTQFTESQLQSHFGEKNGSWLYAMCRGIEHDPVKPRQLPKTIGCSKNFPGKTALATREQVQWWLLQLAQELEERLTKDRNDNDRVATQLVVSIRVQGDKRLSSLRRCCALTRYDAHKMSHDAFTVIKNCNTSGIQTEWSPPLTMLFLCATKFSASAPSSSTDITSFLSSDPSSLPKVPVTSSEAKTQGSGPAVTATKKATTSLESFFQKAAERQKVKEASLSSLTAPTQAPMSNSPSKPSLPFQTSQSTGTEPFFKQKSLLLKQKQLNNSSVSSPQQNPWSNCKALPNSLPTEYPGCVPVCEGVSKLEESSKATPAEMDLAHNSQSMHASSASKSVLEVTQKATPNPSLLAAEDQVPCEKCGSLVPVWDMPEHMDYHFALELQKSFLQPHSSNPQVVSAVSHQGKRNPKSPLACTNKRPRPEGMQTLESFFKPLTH

| Structure (SMILES) | Potency |
| --- | --- |
| O=C1NC(=O)/C(=C/c2ccc(-c3cccc([N+](=O)[O-])c3)o2)S1 | active: 22.4 µM |
| O=C(COC(=O)c1ccc(S(=O)(=O)N2CCOCC2)cc1)Nc1ccccc1OC(F)F | inactive |
| N#CC(CCc1ccc([N+](=O)[O-])cc1)(CCc1ccc([N+](=O)[O-])cc1)C(N)=O | inconclusive: 20 µM [inhibitor, full curve, poor fit] |
| CC[C@]12C(=O)N(C)C[C@H]([C@@H]3C(=O)N(C)C(=O)[C@@H]31)N2C(=O)c1ccc(C(F)(F)F)cc1 | inactive |
| COc1ccc(S(=O)(=O)Nc2nc3ccccc3nc2Nc2cccc(C(=O)O)c2)cc1 | inconclusive: 39.8 µM [inhibitor, partial curve, poor fit] |
| O=C(O)c1ccc(C=NN=C2c3ccccc3-c3ccccc32)cc1 | inconclusive: 31.6 µM [inhibitor, partial curve] |
| COc1ccc(-c2cc(C(F)(F)F)nc(-n3nc(C(F)(F)F)cc3C)n2)cc1 | inactive |
| O=C(CCn1c(=O)c2cccn2c2ccccc21)Nc1ccc(F)cc1 | inconclusive: 89.1 µM [inhibitor, single point] |
| NC(=O)c1ccc(NC(=O)COc2coc(CN3CCc4ccccc4C3)cc2=O)cc1 | inconclusive: 20 µM [inhibitor, full curve, poor fit] |
| CCCc1c(C(=O)N/N=C/C=C/c2ccccc2)nnn1-c1nonc1N | inconclusive: 14.1 µM [inhibitor, full curve, poor fit] |
| COc1ccc(-c2nnc3c4ccccc4c(-c4ccccc4)nn23)cc1 | inactive |
| Cc1ccc(-c2nn(-c3ccccc3)cc2C2CC(c3cccs3)=NN2C(=O)CCCC(=O)O)cc1 (configuration not stated) | inconclusive: 89.1 µM [inhibitor, single point] |
| O=C(NCCN1CCOCC1)c1ccc2c(c1)N(Cc1ccc(Cl)cc1)CCS2 | inconclusive: 89.1 µM [inhibitor, partial curve] |
| CCOC(=O)c1c(Nc2cc(C)cc(C)c2)nnc(-c2ccccc2)c1-c1ccccc1 | inconclusive: 79.4 µM [inhibitor, partial curve, poor fit] |
| Cc1ccn2c(c1)nc(=S)n2C(=O)c1ccccc1 | inconclusive: 44.7 µM [inhibitor, single point] |
| O=C1COc2ccc(C(=O)COc3ccc(Cl)cc3Br)cc2N1 | inactive |
| COc1ccc(-n2c(Cc3cccn3C)nnc2SCC(N)=O)cc1 | inconclusive: 100 µM [inhibitor, partial curve, poor fit] |
| CCOc1ccc(NS(=O)(=O)c2ccc3[nH]cc(C(=O)NCc4ccccc4)c(=O)c3c2)cc1 | inconclusive: 100 µM [inhibitor, single point] |
| Cn1cnnc1Sc1ccc(/C=C(\CC(=O)O)c2nc3ccccc3s2)cc1[N+](=O)[O-] | inconclusive: 79.4 µM [inhibitor, partial curve, poor fit] |
| c1coc(CSSCc2ccco2)c1 | active: 20 µM |
| CCc1nc(N2CCN(C(=O)CCl)CC2)c2c3c(sc2n1)CC(C)CC3 (configuration not stated) | inconclusive: 79.4 µM [inhibitor, partial curve] |
| O=c1c([N+](=O)[O-])c(O)c2cccc3c2n1CCC3 | active: 50.1 µM |
| N#Cc1ncc(Cc2ccccc2)nc1C#N | active: 39.8 µM |

| Structure (SMILES) | Potency |
| --- | --- |
| Cc1oc2ccc(O)cc2c1C(=O)c1ccccc1 | inactive |
| c1coc(CN(Cc2ccco2)c2ncnc3c2oc2ccccc23)c1 | inconclusive: 56.2 µM [inhibitor, partial curve, poor fit] |
| CCc1ccc(C2c3c(-c4cc(C)ccc4O)n[nH]c3C(=O)N2Cc2cccnc2)cc1 (configuration not stated) | inactive |
| Cc1ccc(-c2csc3ncn(CC#N)c(=O)c23)cc1 | inconclusive: 28.2 µM [inhibitor, full curve] |
| COc1ccc(OC)c(NC(=O)N2c3ccccc3Sc3ccccc32)c1 | inactive |
| Cc1cc(C(=O)N/N=C/c2ccc(N(C)C)o2)cs1 | inconclusive: 56.2 µM [inhibitor, partial curve] |
| CC(=O)CSc1nsc(SCC(C)=O)c1C#N | inconclusive: 20 µM [inhibitor, single point] |
| Cc1cc(Cl)ccc1OCCCC(=O)OCC(=O)Nc1cccc(S(N)(=O)=O)c1 | inconclusive: 89.1 µM [inhibitor, partial curve, poor fit] |
| CCOC(=O)C(C)n1cnc2scc(-c3ccc(C)c(C)c3)c2c1=O (configuration not stated) | inconclusive: 100 µM [inhibitor, partial curve, poor fit] |
| COC(=O)c1ccc(NC(=O)c2cn(-c3ccccc3)nc2-c2ccncc2)cc1 | inconclusive: 35.5 µM [inhibitor, single point] |
| CSCCC(C(=O)OC1CCOC1=O)N1C(=O)c2ccccc2C1=O (configuration not stated) | active: 35.5 µM |
| CCOC(=O)C1=C(C)NC(C)=C(C(=O)OCC)C1c1ccc(O)cc1 | inconclusive: 89.1 µM [inhibitor, partial curve, poor fit] |
| COc1ccccc1/C=N/N1CCN(Cc2ccccc2Cl)CC1 | inconclusive: 5.01 µM [inhibitor, full curve, poor fit] |
| Cn1c2ccccc2c(=O)c2c(=O)n(-c3ccccc3)c(C3CCCCC3)nc21 | inconclusive: 35.5 µM [inhibitor, single point] |
| Cc1c(NC(=O)Cc2cccs2)cccc1[N+](=O)[O-] | inconclusive: 56.2 µM [inhibitor, partial curve, poor fit] |
| Cc1noc(C)c1CSCC(=O)N(C)CC(=O)Nc1ccc(Cl)c(Cl)c1 | inconclusive: 35.5 µM [inhibitor, partial curve, poor fit] |
| CCOC(=O)c1c(NC(=O)/C=C\C(=O)O)sc(C)c1-c1ccccc1 | inactive |
| COc1ccc(OC)c(-c2nn(-c3ccccc3)cc2C(=O)N2CCc3ccccc3C2)c1 | inconclusive: 89.1 µM [inhibitor, partial curve, poor fit] |
| O=C(OCn1ncc(Cl)c(Cl)c1=O)c1ccccc1Cl | inconclusive: 89.1 µM [inhibitor, single point] |
| COc1cccc(Nc2nc(Nc3ccc(Cl)c(C(=O)O)c3)nc(C)c2[N+](=O)[O-])c1 | inconclusive: 20 µM [inhibitor, full curve, poor fit] |
| N#CC1(NC(=O)COc2ccc3oc4ccccc4c3c2)CCCCC1 | inconclusive: 3.55 µM [inhibitor, partial curve, poor fit] |
| CCn1c(=O)cc(OCC(=O)NCc2ccco2)c2ccccc21 | inconclusive: 20 µM [inhibitor, partial curve] |
| O=C(COC(=O)c1ccc([N+](=O)[O-])o1)NCc1ccccc1 | active: 50.1 µM |

| Structure (SMILES) | Potency |
| --- | --- |
| Cc1ccc(C(=O)NCC(=O)OCC(=O)Nc2ccccc2C#N)s1 | inactive |
| COc1ccc(CC(=O)n2[nH]c(=O)ccc2=O)cc1OC | inactive |
| Cc1nc2c(C(=O)NCCC(C)C)c[nH]n2c(=O)c1Cl | inactive |
| Cc1nn(CC(=O)Nc2cccc(C(F)(F)F)c2)c(=O)c2nn(-c3ccccc3)c(C)c12 | inconclusive: 100 µM [inhibitor, partial curve, poor fit] |
| CCCCCCCCOc1ccc(C2OC34CCCCC3C(C#N)(C#N)C2(C#N)C(=N)O4)cc1 (configuration not stated) | inconclusive: 31.6 µM [inhibitor, single point] |
| CCN(C(=O)COC(=O)c1cc2c(s1)CCCC2)c1c(N)n(Cc2ccccc2)c(=O)[nH]c1=O | inconclusive: 22.4 µM [inhibitor, full curve] |
| Cc1c(C(=O)N2CCN(c3ccccn3)CC2)oc2ccccc12 | inactive |
| O=C1N=c2ccccc2=C1c1sc(=O)[nH]c1O | inactive |
| COc1ccccc1Cn1c(CNS(=O)(=O)c2cccc([N+](=O)[O-])c2)nc2cccnc21 | inactive |
| O=C(CSc1cccc2cccnc12)NCc1ccco1 | inconclusive: 22.4 µM [inhibitor, partial curve, poor fit] |
| CCc1ccccc1NC(=O)COc1cccc(-n2cnnn2)c1 | inactive |
| CS(=O)(=O)c1ccc2nc(NC(=O)c3ccc(Cn4cc(Br)cn4)o3)sc2c1 | inconclusive: 14.1 µM [inhibitor, partial curve, poor fit] |
| Cc1ccccc1C(=O)c1cccn1CC(=O)NCc1ccco1 | inconclusive: 28.2 µM [inhibitor, single point] |
| C=CCOc1ccc(/C=C2\C(=N)N3N=C(S(=O)(=O)CC)SC3=NC2=O)cc1OC | active: 39.8 µM |
| CC(C)c1ccc(NC(=S)NN(c2ccccc2)c2ccccc2)cc1 | inconclusive: 56.2 µM [inhibitor, partial curve, poor fit] |
| Cc1cc(C)c(CN2CCN(CCCn3ccc(NC(=O)OCc4ccccc4)nc3=O)CC2)c(C)c1 | inactive |
| C=CCNC(=O)c1ccc(C2SCC(=O)N2Cc2ccco2)cc1 (configuration not stated) | inconclusive: 56.2 µM [inhibitor, partial curve, poor fit] |
| COC(=O)c1ccc(NC(=O)Nc2ccc(F)cc2)cc1 | inconclusive: 0.631 µM [inhibitor, full curve, poor fit] |
| CCN(C[C@H]1N[C@@](Cc2ccccc2)(C(=O)OC)[C@H]2C(=O)N(C)C(=O)[C@@H]12)S(=O)(=O)c1ccc(-c2ccccc2)cc1 | inactive |
| Cc1ccc[n+](CC(=O)Nc2c(Cl)cc(Cl)cc2Cl)c1 | inactive |
| Cc1ccc2nc(C)c(C(=O)N/N=C/c3ccc(N4CCOCC4)cc3)cc2c1 | inconclusive: 39.8 µM [inhibitor, single point] |
